B1: UUUUGUA (DNA:RNA)
RNA: GGGAGACCGGAAUUCAGAUUGUCCUUUUGUAUUAAAUCCCGUCGUAGCCACCA
DNA 1: CAATCTGAATTCCGGTCTCCC
DNA 2: TGGTGGCTACGACGGGATT
B2: CCGAGUA (DNA:RNA)
RNA: B1 RNA with U25C, U26C, U27G, U28A
DNA 1: CAATCTGAATTCCGGTCTCCC
DNA 2: TGGTGGCTACGACGGGATT
B3: AGAUCAG (DNA:RNA)
RNA: B1 RNA with U25A, U26G, U27A, G29C, U30A, A31G
DNA 1: CAATCTGAATTCCGGTCTCCC
DNA 2: TGGTGGCTACGACGGGATT
B4: AUUUUCA (DNA:RNA)
RNA: B1 RNA with U25A, G29U, U30C
DNA 1: CAATCTGAATTCCGGTCTCCC
DNA 2: TGGTGGCTACGACGGGATT
B5: CUGUUUG (DNA:RNA)
RNA: B1 RNA with U25C, U27G, G29U, A31G
DNA 1: CAATCTGAATTCCGGTCTCCC
DNA 2: TGGTGGCTACGACGGGATT
B6: CCCAUUU (DNA:RNA)
RNA: B1 RNA with U25C, U26C, U27C, U28A, G29U, A31U
DNA 1: CAATCTGAATTCCGGTCTCCC
DNA 2: TGGTGGCTACGACGGGATT
B7: UGUUUCG (DNA:RNA)
RNA: B1 RNA with U26G, G29U, U30C, A31G
DNA 1: CAATCTGAATTCCGGTCTCCC
DNA 2: TGGTGGCTACGACGGGATT
B8: GGUCAAA (DNA:RNA)
RNA: B1 RNA with U25G, U26G, U28C, G29A, U30A
DNA 1: CAATCTGAATTCCGGTCTCCC
DNA 2: TGGTGGCTACGACGGGATT
B9: CAGUAGU (DNA:RNA)
RNA: B1 RNA with U25C, U26A, U27G, G29A, U30G, A31U
DNA 1: CAATCTGAATTCCGGTCTCCC
DNA 2: TGGTGGCTACGACGGGATT
B10: ACCCUAC (DNA:RNA)
RNA: GGGAGACCGGAAUUCAGAUUGUCCACCCUACUUAAAUCCCGUCGUAGCCACCA
DNA 1: CAATCTGAATTCCGGTCTCCC
DNA 2: TGGTGGCTACGACGGGATT
B11: CCUCGGC (DNA:RNA)
RNA: B10 RNA with A25C, C27U, U29G, A30G
DNA 1: CAATCTGAATTCCGGTCTCCC
DNA 2: TGGTGGCTACGACGGGATT
B12: ACUGGAA (DNA:RNA)
RNA: B10 RNA with C27U, C28G, U29G, C31A
DNA 1: CAATCTGAATTCCGGTCTCCC
DNA 2: TGGTGGCTACGACGGGATT
B13: AUCUCUA (DNA:RNA)
RNA: B1 RNA with U25A, U27C, G29C
DNA 1: CAATCTGAATTCCGGTCTCCC
DNA 2: TGGTGGCTACGACGGGATT
B14: CAAUUAG (DNA:RNA)
RNA: B10 RNA with A25C, C26A, C27A, C28U, C31G
DNA 1: CAATCTGAATTCCGGTCTCCC
DNA 2: TGGTGGCTACGACGGGATT
B15: CAUCUUU (DNA:RNA)
RNA: B10 RNA with A25C, C26A, C27U, A30U, C31U
DNA 1: CAATCTGAATTCCGGTCTCCC
DNA 2: TGGTGGCTACGACGGGATT
B16: CUUCCCG (DNA:RNA)
RNA: B1 RNA with U25C, U28C, G29C, U30C, A31G
DNA 1: CAATCTGAATTCCGGTCTCCC
DNA 2: TGGTGGCTACGACGGGATT
B17: GAUUUAU (DNA:RNA)
RNA: B10 RNA with A25G, C26A, C27U, C28U, C31U
DNA 1: CAATCTGAATTCCGGTCTCCC
DNA 2: TGGTGGCTACGACGGGATT
B18: CUAGGAA (DNA:RNA)
RNA: B1 RNA with U25C, U27A, U28G, U30A
DNA 1: CAATCTGAATTCCGGTCTCCC
DNA 2: TGGTGGCTACGACGGGATT
B19: AGUUAGG (DNA:RNA)
RNA: B1 RNA with U25A, U26G, G29A, U30G, A31G
DNA 1: CAATCTGAATTCCGGTCTCCC
DNA 2: TGGTGGCTACGACGGGATT
B20: CGGUGUA (DNA:RNA)
RNA: B1 RNA with U25C, U26G, U27G
DNA 1: CAATCTGAATTCCGGTCTCCC
DNA 2: TGGTGGCTACGACGGGATT

Where a chain is given by its changes, count along the chain named. The list shows a part of the results.

In this test the target is T1, RBFOX1 RRM RbFoxmut (Fox-RRM*) (Homo sapiens, UniProt Q9NWB1 109-208, R118D;E147R;N151S;E152T).
T1 sequence: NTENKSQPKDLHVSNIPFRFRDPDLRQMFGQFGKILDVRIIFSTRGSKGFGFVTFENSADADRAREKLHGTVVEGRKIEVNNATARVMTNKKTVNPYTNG
Briefly: EMSA; HiTS-Eq, 1 nM pool, 10 min; buffer printed only for the single-RNA assays: 10 mM Tris pH 7.5, 150 mM NaCl, 3.4 mM EDTA, 0.001% NP-40, 30 C. To be noted: tags: His6 N-terminal (pET28a); label: 5' 32P. Put shortly: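 Purified RbFox RRM (wild type or mutant) was equilibrated for 10 min in 50 µL with 1 nM of a 5′-radiolabelled pool of RNA with 7 randomized nucleotides, its flanks annealed to DNA oligonucleotides, across increasing protein concentrations. Free RNA was separated by 8% native PAGE, excised, reverse-transcribed, PCR-barcoded and sequenced on an Illumina HiSeq 2500. Relative association constants came from read-count changes of each variant against the control reaction, normalised to the cognate motif.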
In general terms: A gel shift assay detects complexes by their altered migration in electrophoresis.
In the case of B1, the binding signal was 0.212 KA relative to UGCAUGU. The same measure for B2: 0.139 KA relative to UGCAUGU; for B3: 0.0757 KA relative to UGCAUGU; for B4: 0.105 KA relative to UGCAUGU. On to B5, for which the binding signal is 0.75 KA relative to UGCAUGU. Turning to B6, the binding signal was 0.0746 KA relative to UGCAUGU.

In the case of B7, the binding signal is 0.22 KA relative to UGCAUGU.

With B8, the binding signal was 0.0689 KA relative to UGCAUGU. Take B9: the binding signal was 0.133 KA relative to UGCAUGU. For the molecule B10, the binding signal is 0.0918 KA relative to UGCAUGU.

For the molecule B11, the binding signal was 0.0976 KA relative to UGCAUGU. On to B12, for which the binding signal is 0.121 KA relative to UGCAUGU.

B13: the binding signal is 0.139 KA relative to UGCAUGU. The same measure for B14: 0.0887 KA relative to UGCAUGU; for B15: 0.102 KA relative to UGCAUGU. As for B16, the binding signal was 0.0565 KA relative to UGCAUGU. Consider B17, for which the binding signal is 0.106 KA relative to UGCAUGU. In the case of B18, the binding signal is 0.0892 KA relative to UGCAUGU. Consider B19, for which the binding signal is 0.105 KA relative to UGCAUGU. As to B20, the binding signal is 0.187 KA relative to UGCAUGU.

For the origin of these results see PMC9911399, “Two distinct binding modes provide the RNA-binding protein RbFox with extraordinary sequence specificity”.
